Some of the results follow.

For the assay, the system named is PfSIP2 AP2 domain 1 (GST-tagged). The experiment in a line: gcPBM binding intensity (ln(normalized median fluorescence intensity)); higher = stronger DNA binding. A digest of the protocol: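 The highest Masliner-normalised natural-log median intensity across replicate spots of either probe orientation is reported as binding intensity. GST-tagged P. falciparum DNA-binding domains expressed in E. coli were applied for 1 h to an Agilent 4 × 180k array of primer-extended double-stranded 36-bp intergenic genomic probes plus negative controls, and bound protein was detected with Alexa488 anti-GST antibody and scanned at 488 nm.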
For “AACAAAGAGAAATAAACACACACAAAATAAAGAAAA [CACACA_site8704]”, the “gcPBM binding intensity (ln)” value was 6.85. The figure for “ATTAATTAAAATAGTTGTACAATCAAAAAAACAAAA [XGTACX_site7660]” is 7.23. Take “TTTTTGTATGCTTCCCGACTACATTATGTCGTAAAT [GTGCAC_negctrl_site164]”: the “gcPBM binding intensity (ln)” value was 6.98. The figure for “ATATCGAAAATTTGGTGTACATTTTTATTTGTTCAA [XGTACX_site3094]” is 7.19; for “AGAATATATAAGTATACACACATATATATATATATA [CACACA_site201]” it is 9.33; for “GATATTACGTGTTTGGTATTTTTTGATGTTAATAGG [CACACA_negctrl_site105]” it is 7.25.

As for “TATAAAATAATTAAATGTACATAATATATAAAATAT [XGTACX_site6777]”, the “gcPBM binding intensity (ln)” value was determined as 7.12. For “TGAATATTCATATGCACACAAATTAATATACATAAT [CACACA_site442]” the value was 7.03.

Consider “TATTATAGTCCGACTTTTTAATTTCTTTATTGTTTT [CACACA_negctrl_site1381]”, for which the “gcPBM binding intensity (ln)” value was 6.69.

“TTTTATTTTTAAAATTGTACATTATTATTGTTATTT [XGTACX_site1439]”: the “gcPBM binding intensity (ln)” value came to 6.85. The figure for “TTTTATGTTTTAAAATGTACGTGTCAATGAATAAGT [XGTACX_site6239]” is 7.96; for “AAATTTTAATTAGACTGTACACATTTTAGAATAATT [XGTACX_site4819]” it is 6.87; for “TATTTGTTCTGATCCTTTTATTCAACTTTTTTTTTT [CACACA_negctrl_site978]” it is 6.86. The figure for “GGCTAAAAGTTGCACACACACAAAAAAAAAAAAAAA [CACACA_site7531]” is 8.51. On to “ACCTTAATTATAATAACACACGAAAAGTGGACACAT [CACACA_site1750]”, for which the “gcPBM binding intensity (ln)” value was 7.44. For “ATGTCACAATTTTTCACACACAAAATTTAAATACAT [CACACA_site5168]”, the “gcPBM binding intensity (ln)” value worked out at 7.27. The figure for “TATTATTATATATATAGTACATAAAATATAAAAAAA [XGTACX_site2060]” is 7.03; for “TTTTTTAAATTATATTATAGCAAATAAATATTAAAA [CACACA_negctrl_site1655]” it is 6.89; for “TTTTTTTTTTAAATGTGTCCTCATTATAATATATGT [XGTACX_site5331]” it is 7. The figure for “TAATTATGCGGACACACACACACACCCAACTAAAAA [CACACA_site5427]” is 7.33. The figure for “GCATTATTATATATTTGTACATATTTTTTTTTAAAA [XGTACX_site5436]” is 7.3.

For “AATTATATATAAAGAAGTACTATTTCAAGGAGTTTT [XGTACX_site3837]”, the “gcPBM binding intensity (ln)” value was determined as 6.92. The figure for “AATAAAACATCATCATGTACAAAATTCGTCTTTGTA [XGTACX_site4821]” is 6.73. For “TCAAATTTTCAACATTGTACATAAATGTATAAATAT [XGTACX_site6042]” the value was 6.87; for “CAAAATATATATGACACACACAAAAAAAGTATATTA [CACACA_site1589]”, 6.93; for “TATTGATATATATATATATATATATGTATATACTTA [GTGCAC_negctrl_site111]”, 7.46.

Take “TTCGCTGTTTTAATTAGTACTTATATATAATATTAT [XGTACX_site1149]”: the “gcPBM binding intensity (ln)” value was determined as 7.57.

For the sequence “CTAAACCTTTTGAGCACACATATATATATATATATA [CACACA_site1782]”, the “gcPBM binding intensity (ln)” value came out at 9.95.

With “TTTTTATATAAGAAAAAATTATAACAATTTGTTAAT [XGTACX_negctrl_site422]”, the “gcPBM binding intensity (ln)” value was found to be 6.72. For “AAAAAAAAAATATATTGTACAATATTGTAGCTATAT [XGTACX_site7180]” the value was 6.99; for “TTCAATAGTAAGTATACACACATATAAATAAATAAA [CACACA_site7295]”, 6.91. For “GCAACCTTGTGCAAATGTACAAAAAAAAAAAAAAAA [XGTACX_site679]” the value was 7.36. With TTTTTGTTATTTTTAGTGCAGAAGAATAAATTTTAA, the “gcPBM binding intensity (ln)” value was determined as 7.79.

As for “AAAATTTCTTATTTTGTACACACAATAAATATTCAC [CACACA_site8464]”, the “gcPBM binding intensity (ln)” value amounted to 7.01. Turning to “TTTTTATTGTTGCTATATTTATAACAATTTATCATA [GTGCAC_negctrl_site75]”, the “gcPBM binding intensity (ln)” value is 6.82. The figure for “CAATTTATAAAGAAAACACACATATACATAAATACA [CACACA_site4829]” is 7.13; for “TATATATATGGACACACACACATATATATATATTTT [CACACA_site5409]” it is 7.3; for “TATATATAATATAGTGCATGTAAAAAATAAACCATG [TGCATGCA_site932]” it is 9.18. For “TATAAATTAAAACATTGTACATTTTTATTATTATGT [XGTACX_site579]” the value was 6.99; for “TATCTTACTTTTTGCACACACTAATATTATTGTTTA [CACACA_site4990]”, 7.54.

For “ACAACTATTCATCATAGTACACGCATGATATATATA [XGTACX_site1539]”, the “gcPBM binding intensity (ln)” value amounted to 7.23. Turning to “AAAATTAATATCTTGGTGCATTTTTTAATATTATTA [GTGCAC_site9638]”, the “gcPBM binding intensity (ln)” value was found to be 10. The figure for “TTCTTTAAAATGATATACGTTATAAATATATATATA [XGTACX_negctrl_site256]” is 8.82; for “AGAACTTAATGCTGCACACAAAAAAAAGGAAAAATA [CACACA_site1353]” it is 7.23.

For the origin of these results see the supplement of paper PMC11417369.
